pIC50: −log10 of the molar value. The IC50 comes from the fitted curve, where viability falls to half of the control; a fit beyond the top or the lowest dose is shown as a bound at that dose. AUC sums up the same curve from the lowest dose to the 256-fold higher top dose; it is 1 without any effect and falls as sensitivity rises. For part of these data: The top dose, if marked as inferred, comes from the curve model; the source does not state it. For part of these data: Where an entry number is given, a second screen of the drug exists; the two often differ.
How the values were obtained:
Experiment in all cases: Viability of human cancer cell lines after 72 h of drug (GDSC screen)
Elesclomol = compound: CN(NC(=O)CC(=O)NN(C)C(=S)c1ccccc1)C(=S)c1ccccc1 [Elesclomol]; settings: top dose 0.2 µM; top dose inferred
Experimental: (§1)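 Human cancer cell lines in 384-well plates, medium with 10% serum, drug for 72 h over a 256-fold dose range (nine 2-fold or five 4-fold steps up to the top dose). Adherent lines were fixed and stained with the nucleic acid dye Syto60, suspension lines read with resazurin; signal relative to control wells, capped at 0 and 100%. One two-parameter sigmoid per drug and line, fitted in a mixed model over all curves with the slope shared within a line.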

Tamoxifen = compound: CC/C(=C(\c1ccccc1)c1ccc(OCCN(C)C)cc1)c1ccccc1 [Tamoxifen]; settings: top dose 5 µM
Experimental: as §1

BX-912 = compound: O=C(Nc1cccc(Nc2ncc(Br)c(NCCc3cnc[nH]3)n2)c1)N1CCCC1 [BX-912]; settings: top dose 10.24 µM; top dose inferred
Experimental: as §1

OSI-930 = compound: O=C(Nc1ccc(OC(F)(F)F)cc1)c1sccc1NCc1ccnc2ccccc12 [OSI-930]; settings: top dose 10.24 µM
Experimental: as §1

LAQ824 = compound: O=C(/C=C/c1ccc(CN(CCO)CCc2c[nH]c3ccccc23)cc1)NO [LAQ824]; settings: top dose 1.024 µM; top dose inferred
Experimental: as §1

Masitinib = compound: Cc1ccc(NC(=O)c2ccc(CN3CCN(C)CC3)cc2)cc1Nc1nc(-c2cccnc2)cs1 [Masitinib]; settings: top dose 20 µM
Experimental: as §1

Bleomycin = compound: Cc1c(N)nc([C@H](CC(N)=O)NC[C@H](N)C(N)=O)nc1C(=O)N[C@H](C(=O)N[C@H](C)[C@@H](O)[C@H](C)C(=O)N[C@H](C(=O)NCCc1nc(-c2nc(C(=O)NCCC[S+](C)C)cs2)cs1)[C@@H](C)O)[C@@H](OC1OC(CO)C(O)C(O)C1OC1OC(CO)C(O)C(OC(N)=O)C1O)c1cnc[nH]1 [Bleomycin]
Experimental: as §1

HG-5-88-01 = compound: COc1cc(N2CCC(C(N)=O)CC2)ccc1Nc1nc(N)c(Cl)c(Nc2ccccc2S(=O)(=O)C(C)C)n1 [HG-5-88-01]; settings: top dose 10 µM; top dose inferred
Experimental: as §1

VNLG/124 = compound: CCCC(=O)OCc1ccc(OC(=O)/C=C(C)/C=C/C=C(C)/C=C/C2=C(C)CCCC2(C)C)cc1 [VNLG/124]; settings: top dose 5.12 µM; top dose inferred
Experimental: as §1

NSC-87877 = compound: O=S(=O)(O)c1ccc2cc(N=Nc3cc(S(=O)(=O)O)c4cccnc4c3O)ccc2c1 [NSC-87877]; settings: top dose 16 µM; top dose inferred
Experimental: as §1

[1] = top dose 50 µM, screen: GDSC drug entry 1378, top dose inferred
[2] = top dose 64 µM, screen: GDSC drug entry 190

Cell Line | AUC (Elesclomol) | pIC50 (Elesclomol) | AUC (Tamoxifen) | pIC50 (Tamoxifen) | AUC (BX-912) | pIC50 (BX-912) | AUC (OSI-930) | pIC50 (OSI-930) | AUC (LAQ824) | pIC50 (LAQ824) | AUC (Masitinib) | pIC50 (Masitinib) | AUC (Bleomycin; [1]) | pIC50 (Bleomycin; [1]) | AUC (Bleomycin; [2]) | pIC50 (Bleomycin; [2]) | AUC (HG-5-88-01) | pIC50 (HG-5-88-01) | AUC (VNLG/124) | pIC50 (VNLG/124) | AUC (NSC-87877) | pIC50 (NSC-87877)
EN (endometrium, adherent) | 0.592 | 7.62 | 0.982 | < 5.30 | 0.826 | 5.07 | 0.979 | < 4.99 | 0.695 | 6.58 | 0.937 | < 4.70 | 0.96 | < 4.30 | 0.782 | 4.46 | 0.982 | < 5.00 | 0.975 | < 5.29 | 0.922 | < 4.80
Calu-3 (lung adenocarcinoma, adherent) | 0.955 | < 6.70 | 0.969 | < 5.30 | 0.927 | < 4.99 | 0.982 | < 4.99 | 0.419 | 7.44 | 0.981 | < 4.70 | 0.655 | 5.03 | 0.595 | 5.11 | 0.956 | < 5.00 | 0.951 | < 5.29 | 0.979 | < 4.80
NCI-H2141 (small cell lung carcinoma, suspension) | 0.901 | < 6.70 | 0.972 | < 5.30 | 0.837 | 5.18 | 0.965 | < 4.99 | 0.543 | 7.08 | 0.941 | < 4.70 | 0.973 | < 4.30 | 0.813 | 4.48 | 0.905 | < 5.00 | 0.976 | < 5.29 | 0.974 | < 4.80
LS-123 (large intestine, adherent) | 0.685 | 7.31 | 0.977 | < 5.30 | 0.898 | < 4.99 | 0.913 | < 4.99 | 0.462 | 7.31 | 0.905 | < 4.70 | 0.894 | < 4.30 | 0.659 | 4.89 | 0.874 | < 5.00 | 0.977 | < 5.29 | 0.982 | < 4.80
WM278 (melanoma, adherent) | 0.585 | 7.66 | 0.977 | < 5.30 | 0.899 | < 4.99 | 0.971 | < 4.99 | 0.474 | 7.27 | 0.886 | < 4.70 | 0.588 | 5.25 | 0.31 | 5.96 | 0.897 | < 5.00 | 0.984 | < 5.29 | 0.914 | < 4.80
LB1047-RCC (kidney, adherent) | 0.468 | 8.00 | 0.959 | < 5.30 | 0.924 | < 4.99 | 0.968 | < 4.99 | 0.376 | 7.56 | 0.872 | < 4.70 | 0.371 | 5.88 | 0.13 | > 6.60 | 0.875 | < 5.00 | 0.959 | < 5.29 | 0.975 | < 4.80
